Columns and labels:
[1] = target: Bee venom (Apis melifera) PLA2 (Apis mellifera) (UniProt P00630); experiment: cell-based or functional assay
[2] = target: daboiatoxin, the major PLA2 toxin of Daboia russelli siamensis venom (Daboia russelli siamensis); experiment: cell-based or functional assay

| Substance | % Inhibition (mean) of paw oedema; Bee venom PLA2 (1 µg) + AIP-2 (50 µg) [1] [%] | % Inhibition (mean) of paw oedema; Daboiatoxin PLA2 (1.5 µg) + PAF (100 µg) [2] [%] |
| --- | --- | --- |
| anti-inflammatory peptide-2 from Sigma | 43.7 | – |
| recombinant Python Antitoxic Factor (PAF), later renamed Phospholipase Inhibitor from Python (PIP), (from UniProt Q9I8P7 20-201) | – | 92.1 |
